Target: T1, recombinant human TL1A-his (processed secreted human TL1A with an N-terminal his-tag) (human, UniProt O95150 72-251)
T1 construct: also called recombinant histidine tagged human TL1A; histidine-tagged human TL1A
T1 sequence: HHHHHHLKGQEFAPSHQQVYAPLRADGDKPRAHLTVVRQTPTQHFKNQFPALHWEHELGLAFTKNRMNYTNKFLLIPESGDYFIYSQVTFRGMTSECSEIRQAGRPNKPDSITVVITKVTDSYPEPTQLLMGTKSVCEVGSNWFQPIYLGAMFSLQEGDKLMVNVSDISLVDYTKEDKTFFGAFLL
Assay: SPR (BIAcore 2000), antibody captured on protein-A, his-tagged human TL1A as analyte
Procedure: Kinetic binding affinity constants (KD) were measured on protein-A captured antibody using recombinant histidine tagged TL1A as analyte. Measurements were conducted on a BIAcore 2000 (GE Healthcare—BIAcore, GE Healthcare Europe GmbH, Glattbrugg, Switzerland) at room temperature, and analyzed with the BiaEvaluation software (BIAcore; v4.1. GE Healthcare Europe GmbH).
Following this capture step, the recombinant histidine tagged human TL1A was injected at different concentrations (1.25 to 125 nM) on the flow-path 1 and 2 (flow-path 1 being used as reference) at a 30 μl/min flow rate. After each binding event, surface was regenerated with glycine buffer pH 1.5 injected for 20 sec (30 μL/min).
Measurements (sensorgram: fc2-fc1) were best fitted with a 1:1 analyte model without mass transfer. To account for the experimental variations in protein-A captured antibody at the beginning of each measurement, the Rmax value was set to local in all fits. Dissociation times were of at least 300-600 seconds. Measurements were performed in duplicate and included zero-concentration samples for referencing. The Chi2 value represents the sum of squared differences between the experimental data and reference data at each point; while the plots of residuals indicate the difference between the experimental and reference data for each point in the fit. […]

Kd: 259 pM
B1: VH5/VL1 humanized 5G6 antibody (IGHG1) (antibody, human IgG1, kappa)
heavy: QVQLVQSGAEVKKPGASVKVSCKASGYTFTSSWMHWARQAPGQGLEWMGEIHPNSGGTNYAQKFQGRVTMTVDTSISTAYMELSRLRSDDTAVYYCARGDYYGYVSWFAYWGQGTLVTVSS[human IgG1 constant region not written out]
light: DIQMTQSPSSLSASVGDRVTITCQASQNINVLLNWYQQKPGKAPKLLIYKASNLHTGVPSRFSGSGSGTDFTFTISSLQPEDIATYYCQQGQSYPYTFGQGTKLEIKRTVAAPSVFIFPPSDEQLKSGTASVVCLLNNFYPREAKVQWKVDNALQSGNSQESVTEQDSKDSTYSLSSTLTLSKADYEKHKVYACEVTHQGLSSPVTKSFNRGEC
